Here are results for 34 variants from the RNAGym collection of RNA variant scans (doi:10.1093/nar/gkz1192).

First the molecules themselves.
B1: CPEB3 Ribozyme (parent)
chain: UAACAGGGGGCCACAGCAGAAGCGUUCACGUCGCAGCCCCUGUCAGAUUCUGGUGAAUCUGCGAAUUCUGCUGUAUAUCUC

Read counts are not given, so values of variants with three or more changes are uncertain.

In this data set the parent is B1. Kind of data set: self-cleavage, relative activity (ratio to wild type); higher = more cleavage; in vitro, sequencing. The method, boiled down: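 For each CPEB3 ribozyme variant, relative activity is its cleaved/total read fraction divided by the unmutated ribozyme's. Barcoded error-prone PCR libraries were transcribed by T7 RNA polymerase (5 hours, 37°C) and held in DNase I for 15 min before an EDTA stop, with cleavage occurring throughout. Template-switching reverse transcription and Illumina sequencing were used to read the RNAs. A 5-read minimum applied, and results are the mean of three batches.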
For the variant AAACAGGGGGCCACAGCAGAAGCAUACACGUCGCAGCCCCUGUCAGAUUCUGGUGAAUCUGCGAAUUCUGCUGUAAAUCUC [U1A G24A U26A U76A], the self-cleavage was 0.25.
AAACAGGGGGCCACAGCAGAAGCGUUCACGUCACAUCCCCUGUCAGAUUCUGGUGAAUCCGCUAAUUCUGCUGUAUAUCUC [U1A G33A G36U U60C G63U]: the self-cleavage was determined as 0.07.
As to AAACAGGGGGCCACAGCAGAAGUGUUCACCUCGCAGCCCCUGUCUGAUUCUGGUGAAUCCCCGAAUUCUGCUGUAUAUCUC [U1A C23U G30C A45U U60C G61C], the self-cleavage is 0.13.
Turning to AAACAGGGGGCCACAGCAAAAGCGUUCACGUCGCAGCCCCUGUCAGAUUCUGAUGAAUCUGCGAAUUCUGCUGUAUUUCUC [U1A G19A G53A A77U], the self-cleavage amounted to 0.16.
The value for AAACAGGGGGCCACAGCAGAAGCGUGCACGUCGCAGCCCCUGUCAGAUUCUGGUGAAUCUGCGGAUUCUGCUGUAUAUCUC [U1A U26G A64G] was 0.22.
The value for AAACAGGGGGCCACAGCAGAAGCGUUUACGACGCAGCCCCUGUCAGAUUCUGGUGAAUCUGCGAAUUCUGCAGCGUAUCUC [U1A C27U U31A U72A U74C A75G] was 0.08; that for AAACAGGGGGCCACAGCAGAAGCGAUCUCGUCGCAGCCCCUGUCAGAUUCUGGCGAAUCUGCGAAUUCUGCUGUAUAUCUC [U1A U25A A28U U54C] was 0.25; that for AAACAGGGGGCCACAGCAAAGGCGUUCACAUCGCAGCCCCUGUCAGAUUUUGGUGAAUCUGCGAAUUCUGCUGUAUAUCUC [U1A G19A A21G G30A C50U] was 0.05.
Next, AAACAGGGAGCCACAGCAGAAGCGCUCACGUCGCAGCCCCUGUCAGAUUCUGGUGAAUCCGCGAAUUCUGCUGUAUAUCUC [U1A G9A U25C U60C]: 0.13.
Consider AAACAGGGGGCCACAGCAGAAGCGUCCACGUCGCAGCCCCUGUCAGAUUCUGGUGUAUCUGCGAAUUCUGCAGUAUAUCUC [U1A U26C A56U U72A], for which the self-cleavage is 0.15.
Regarding AAACAGAGGGCCACAGCAGAAGCGUUCACGUUGCAGCCCCUGCCAGAUUCUGGUGAAUCUGCGAAUUCUGCUGUAUAUCCC [U1A G7A C32U U43C U80C], the self-cleavage stood at 0.
For AAACAGGGGGCCACAGCAGAAGCGUUCACGUCGCACCCCCUGUCAGAUUUUGGUGUAUCUGCGAAUUCUGCUGUAUAUCUU [U1A G36C C50U A56U C81U], the self-cleavage stood at 0.11.
Regarding AAACAGGGCGCCACAGCAGAAGCGUUCACGUCGCAGCCCCUGUCAGAUUCUGGUGAAUCUGCGGACUCUGCUGUAUAUCUC [U1A G9C A64G U66C], the self-cleavage is 0.13.
The value for AAACAGAGGGCCACAGCGGAAGCGUUCUCGUCGCAGCCCCUGUCAGAUUCUGGUGAAGCUGCGGAUUCUGCUGUAUAUCUC [U1A G7A A18G A28U U58G A64G] was 0.04; that for AAACAGGGGGCCACAGCAGAAGCGUUCACGUCGCAUCCCUUGCUAGAUUCUGGUGAAUCCGCGAAUCCUGCUGUAUAUCUC [U1A G36U C40U U43C C44U U60C U67C] was 0.07.
The value for AAACAGGGGGCCACAGGAGAAGCGCUCACGUCGCAGCCCCUGUCAGAUUCUGGUGAAUCUGCGAAUUCUGCUGUAUAUCCC [U1A C17G U25C U80C] was 0.07; that for AAACAAGGGGCCACAGCAGGAGCGCUCACGUCGCAGCCCCUGUCAGAUUCUGGUGAAUCUGCGAAUUCAGCCGUAUAUCUA [U1A G6A A20G U25C U69A U72C C81A] was 0.06.
For the variant AAACAGGGAGCCACAGCAGAAGCGUCCACGUCGCAGCCCCUGUCAGAUUCUGGUGAAUCUGCGAAUUCUGCUGUAUAUCUC [U1A G9A U26C], the self-cleavage was determined as 0.44.
The value for AAACAGGGGGCCACAGCAGAAGCGUUCACGUCGCAGCUCCUGUCAGAUUCUGGUGAAUCUGCGAAUUCUGCGGUAUAUCUC [U1A C38U U72G] was 0.82; that for AAACAAGGGGCCACAGCAGAAGCGUCCACGUCGCAGCCCUUGUCAGAUUCUGGUGAAUCUGCGAAUUCUGCUGUAUAUCUC [U1A G6A U26C C40U] was 0.23.
Next, AAACAGGGGGCCACAGCAGAAGCGUUCACGUCGCAUCCCCUGUCAGAUUCUGGUGAAUCAGCGAAUUCUGCUGUAUAUCUC [U1A G36U U60A]: 0.03.
Regarding AAACAGGGGGCCACAGCAGAAGCGUACACGUCGCGGCCCCUGUCGGAUUCUGGUGAAUCUGUGAAUUCUGCUGUAUAUCUC [U1A U26A A35G A45G C62U], the self-cleavage is 0.24.
Next, AAACAGGGGGCCACAGCAGAAGCGUCCACGUCGCAGCCCCUGUCAGAUCCUGGUGAAACUGCGAAUUCUGCUGUAUAUCUC [U1A U26C U49C U58A]: 0.06; AAACAGGGGGCCACAGCAGAAGCGUUCACGUCCCAGCCCCUGUCGCAUUCUGGUGAAUCUGCGAAUUCUGCUGUAUAUCUC [U1A G33C A45G G46C]: 0.06.
Consider AAACAGGGGGCCACAGCAGAAGCGUUCACGUCGCAACCCCUGUCAGAUUCUGGUGAAUCUGCGAAUUCCGCUGUAUAUCUC [U1A G36A U69C], for which the self-cleavage was 0.12.
Turning to AAACAGGGGGCCACAGCAGAAGCGUUCAUGUCGCAGCCCUUGUCAGAUUCUGGUGAAUCUGCGAAUCCUGCUGUAUAUCCC [U1A C29U C40U U67C U80C], the self-cleavage is 0.07.
The value for AAACAGGGGGCCACAGCAGAAGCGCUCACGUCGCAGCCCCUGUCAGAUUCUGGUGAGUCUGCGAAUUCUGCUGCAUAUCUC [U1A U25C A57G U74C] was 0.24.
The value for AAACAGGGGGCCACAGCAGAAGCGUUCACGUAGCAGCCCCUGUCAGAUUCUGGUGAAUCUGCGAAUUCUGCCGUAUAUCUC [U1A C32A U72C] was 0.09.
Consider AAACAGGGUGCCACAGCAGAAGCGUACACGUCGCAGCCCCUGUCAGACUCUGGUGAAUCUGCGAAUUCCGCCGUAUAUCUC [U1A G9U U26A U48C U69C U72C], for which the self-cleavage stood at 0.1.
On to AAACAGGGGGCCACAGCAAAAGCGUUCACGUCGCGGCCCCUGUCAGAAUCUGGUGAAUCUGCGAAUUCUGCUGUAUAACUC [U1A G19A A35G U48A U78A], for which the self-cleavage was 0.11.
Next, AAACAGGGGGCCACAGCAGAAGCGCACACGUCGCAGCCCCUGUCGGAUUCCGGUGAAUCUGCGAAUUCUGCUGUUUAUCUC [U1A U25C U26A A45G U51C A75U]: 0.1.
With AAACAGGAGGCCACAGCAGAAGCGUUCACGUAGCAGCCCCUGUCAGAUUCUGGUGAAUCUGCGAAUUCUGCUGUAUACCUC [U1A G8A C32A U78C], the self-cleavage amounted to 0.22.
The value for AAACAGGGGGCCACAGCAGAAGCGUCCACUUCGCAGCCCCUGUCAGACUCUGAUGAAUCUGCGAAUUCUGCUGUAUAUCUC [U1A U26C G30U U48C G53A] was 0.17; that for AAACAGGGGGCCACAGCAGAAGCGUUUACGUCGCAGCCCCUGUCAGAUUCCGGUGAAUCUGCGAAUUCUGCUGUAUAUCUC [U1A C27U U51C] was 0.2.
